Laboratory results from PubChem BioAssay AID624296 (National Center for Advancing Translational Sciences (NCATS), 2012).
Among all 350,000 compounds or so, about 9,900 (2.8%) were called active. Inconclusive results, whose numbers are uncertain, are shown with a selection of clear calls. The call rests on the fitted dose curve; in most records, active means well fitted activation curve with a large enough effect; inconclusive means small, poorly fitted or top-dose-only effect; inactive means no such curve, though single readings can be large or run the other way. Potencies of inconclusive entries are left out as doubtful fits.

Assay: A quantitative high throughput screen for small molecules that induce DNA re-replication in MCF 10a normal breast cells. Further: nearly all actives have a fitted effect of over 50% in size.
Details: MCF 10A DNA re-replication, Hoechst nuclear intensity, 48 h; series mostly up to 46.1 µM
Potency means the concentration at half of the fitted maximal effect; tags describe the fitted curve by direction and shape.

| Compound | Potency |
| --- | --- |
| N/C(Cc1ccc([N+](=O)[O-])cc1)=N\OC(=O)Cc1ccccc1 | inactive |
| CCC(=O)Nc1cccc(C(=O)OCc2cccc([N+](=O)[O-])c2)c1 | inconclusive [activator, single point] |
| Cn1nc(C(C)(C)C)cc1NC(=O)Nc1cc(Cl)cc(Cl)c1 | inconclusive [activator, single point] |
| Cc1ccc(S(=O)(=O)/N=C2\C=C(NS(=O)(=O)c3ccccc3)C(=O)c3ccccc32)cc1 | inconclusive [activator, partial curve, poor fit] |
| O=C(NC1CCCc2ccccc21)c1cc(S(=O)(=O)N2CCOCC2)ccc1F (configuration not stated) | inconclusive [activator, full curve, poor fit] |
| C/C(=N\Nc1cc(C)nc(-c2ccccc2)n1)c1cccc([N+](=O)[O-])c1 | active: 0.731 µM |
| O=C(c1ccco1)N1CCN(Cc2nnc(-c3cccc(Br)c3)o2)CC1 | inactive |
| CCOC(=O)CN1C(=O)C(C)(C)Oc2ccc(C(=O)Nc3ccccc3OC)cc21 | inconclusive [activator, partial curve, poor fit] |
| COc1ccccc1/C=N/NC(=O)c1ccc(CN2C(=O)c3cccc4cccc2c34)cc1 | inconclusive [activator, single point] |
| O=C(NCCCN1CCOCC1)c1ccc(/C=C2\Oc3ccccc3N(Cc3ccccc3F)C2=O)cc1 | active: 5.17 µM |
| CSc1ccc(NC(=O)c2cccnc2)cc1C#N | inactive |
| CN(CC(=O)Nc1ccc(Cl)cc1)C(=O)c1ccc(COc2ccccc2)cc1 | inconclusive [activator, single point] |
| COc1ccc(CN(C)C(=S)Nc2ccc(Cl)cc2)cc1 | inconclusive [activator, partial curve, poor fit] |
| Cc1ccc(S(=O)(=O)/N=C(/Nc2nc(C)cs2)c2ccccc2)cc1 | inactive |
| O=C(O)C(Oc1ccc2c(-c3ccccc3)cc(=O)oc2c1)c1ccccc1 (configuration not stated) | inconclusive [activator, full curve, poor fit] |
| Cc1cc(NC(=O)c2ccc(F)cc2)n(C)n1 | inactive |
| CC(C)C(NS(=O)(=O)c1ccc2c(c1)oc(=O)n2C)C(=O)N1CCN(c2ccccc2F)CC1 (configuration not stated) | inconclusive [activator, single point] |
| COc1ccc(N(CC(=O)Nc2ccccc2C(=O)O)S(=O)(=O)c2ccc(C)c([N+](=O)[O-])c2)cc1 | inactive |
| COc1ccc(NC(C)=[N+](C)CCNS(=O)(=O)c2ccc(Cl)cc2)cc1Cl | inconclusive [activator, single point] |
| CC(C)(C)c1ccc(-c2nc3c(C#N)c(-c4ccc5c(c4)OCO5)ccn3n2)cc1 | inconclusive [activator, single point] |
| CCOc1cc(/C=N\NC(=O)c2c(C)nc3ccccn23)ccc1O | inconclusive [activator, partial curve, poor fit] |
| COC(=O)c1sc(S(=O)(=O)N2CCN(c3ccccc3F)CC2)c(C(=O)OC)c1C | inactive |
| CC1=C(C(=O)OC(C)C)C(C2CC=CCC2)NC(=O)N1 (configuration not stated) | inconclusive [activator, single point] |

| Compound | Potency |
| --- | --- |
| COC(=O)Cc1cc(=O)[nH]c(/N=C(\N)Nc2cccc(C)c2)n1 | inactive |
| CCN(CC)S(=O)(=O)c1ccc(Cl)c(OC)c1 | inactive |
| O=C(Nc1ccc(Cl)c(Cl)c1)Nc1nnc(CC2=CCCCC2)s1 | inconclusive [activator, partial curve, poor fit] |
| COC(=O)c1ccc(CSc2ccc3nnc(-c4ccc(F)cc4)n3n2)o1 | inactive |
| Cc1ccc(S(=O)(=O)Nc2cccc(C(=O)NCC3(N4CCCCC4)CCCCC3)c2)cc1F | inactive |
| Cc1cccc(NC(=O)CSCC(=O)Nc2ccccc2C(=O)NC2CC2)c1 | inconclusive [activator, partial curve, poor fit] |
| CCN(CC)CCCNC(=O)c1sc2nc(-c3ccc(F)cc3)cn2c1C | active: 23.1 µM |
| O=C(NCC1OCCc2ccccc21)c1ccc(NC(=O)c2ccccc2Cl)cc1 (configuration not stated) | inactive |
| Cc1ccc(C(=O)N(CC(=O)Nc2sc(C)c(C)c2C(N)=O)C2CCCC2)cc1 | inconclusive [activator, single point] |
| O=[N+]([O-])c1cccc(C=NNC(=S)NC23CC4CC(CC(C4)C2)C3)c1 | inactive |
| COc1ccc2oc(=Nc3cc(F)ccc3F)c(C(N)=O)cc2c1 | inconclusive [activator, full curve] |
| COc1ccc(Cl)cc1C(=O)CSc1nnnn1C1CCCCC1 | inconclusive [activator, partial curve, poor fit] |
| Cc1c(Cc2ccccc2)sc(/N=C/c2ccc3ccccc3c2)c1C(N)=O | active: 2.91 µM |
| CCOC(=O)c1c(NC(=O)c2ccc(-n3cnnn3)cc2)sc2c1CCCC2 | inconclusive [activator, partial curve, poor fit] |
| Cc1n[nH]c(C)c1CN(C)C(=O)C1CCC(=O)N(CC2CCCCC2)C1 (configuration not stated) | inconclusive [activator, single point] |
| COc1cc(C(=O)N/C(=C\c2cn(C)c3ccccc23)C(=O)NCCCN2CCOCC2)cc(OC)c1OC | inconclusive [activator, single point] |
| COc1cc(/C=C/c2ccc3cccc(OC)c3n2)c(OC(C)=O)c([N+](=O)[O-])c1 | active: 6.51 µM |
| COc1ccc(-n2c(SCC(=O)N3CCOCC3)nc(O)c(Cc3ccccc3)c2=O)cc1 | inconclusive [activator, single point] |
| O=C(CN1C(=O)S/C(=C\c2ccc(F)cc2)C1=O)Nc1cccc(S(=O)(=O)NCc2ccco2)c1 | inconclusive [activator, partial curve, poor fit] |
| O=C(O)c1ccc(O)cc1O | inactive |
| CN(C)S(=O)(=O)c1cccc(NC(=O)COc2ccc(C(=O)c3ccccc3)cc2)c1 | inconclusive [activator, partial curve, poor fit] |
| CCN(CC)c1ccc(/C=N/N2C(=O)c3ccccc3C2=O)c(O)c1 | inconclusive [activator, partial curve, poor fit] |
| Cc1ccc(CNC(=O)c2ccc3c(c2)S(=O)(=O)c2ccccc2C3=O)o1 | inactive |

| Compound | Potency |
| --- | --- |
| Cc1ccc(NC(=O)c2csc3c2CCCC3)cc1 | inconclusive [activator, partial curve, poor fit] |
| Cn1c2ccccc2c2cc(/C=N/NC(=O)c3cc(O)cc(O)c3)ccc21 | inconclusive [activator, single point] |
| O=C(CSc1nc(O)c(C2CCCCC2)c(=O)[nH]1)Nc1ccc(Cl)cc1 | inconclusive [activator, full curve, poor fit] |
| Cc1ccc(Nc2nc(Cl)nc(N(C)C#N)n2)cc1 | inconclusive [activator, single point] |
| CC1(C)Cc2ccccc2C2=NNC(=O)C2=N1 | inconclusive [activator, single point] |
| CCc1nc2c(c(=O)c3ccccc3n2C)c(=O)n1C1CCCCCC1 | inconclusive [activator, single point] |
| COc1ccc(CNC(=O)CCCn2ccc3cc(S(=O)(=O)N4CCCC4)ccc32)cc1 | active: 20.6 µM |
| COc1ccc2c(c1)c1ncn(CCc3ccccc3)c(=O)c1n2C | inconclusive [activator, partial curve, poor fit] |
| COc1cccc(NC(=O)CN2C(=O)CSc3ccc(S(=O)(=O)N4CCCCC4)cc32)c1 | inconclusive [activator, partial curve, poor fit] |
| CCCCn1c(SCc2nc3ccccc3s2)nc2ccccc2c1=O | inconclusive [activator, full curve, poor fit] |
| O=C(CSc1ncccn1)Nc1ccc(S(=O)(=O)N2CCCCC2)cc1 | inactive |
| CCN(Cc1nc(-c2ccccc2)no1)C(=O)c1ccoc1C | inconclusive [activator, partial curve, poor fit] |
| O=C(NCCOc1ccccc1)c1cc([N+](=O)[O-])ccc1N1CCOCC1 | active: 10.3 µM |
| COc1cc(CNc2cccc3[nH]c(C(F)(F)F)nc23)cc(OC)c1 | inconclusive [activator, single point] |
| O=C(N/N=C/C1CC2CCC1C2)c1ccc2c(c1)OCO2 (configuration not stated) | inactive |
| Cc1ccc(S(=O)(=O)N(C)CC(=O)NCCc2c[nH]c3ccccc23)cc1 | inconclusive [activator, partial curve, poor fit] |
| COc1ccc(-c2csc3ncnc(NCCN4CCOCC4)c23)cc1 | inconclusive [activator, single point] |
| O=C(Cc1n[nH]c(=O)c2ccccc12)Nc1cccc(S(=O)(=O)N2CCCCCC2)c1 | inconclusive [activator, partial curve, poor fit] |
| Cc1cc(C)nc(SCC(=O)c2ccc(O)c(O)c2)n1 | inactive |
| COC(=O)c1ccc(Oc2nc(Nc3ccccc3)nc(N(C)C)n2)cc1 | inconclusive [activator, partial curve, poor fit] |
| COc1ccc(CC(=O)OCC(=O)Nc2ncc(Cl)c(C)c2Cl)cc1 | inactive |
